Measured values as given in patent US5780265A, “Kunitz type plasma kallikrein inhibitors” (Genentech, Inc., priority 1995, dated 1998).
Entries after “also recorded” stand apart in the source; their conditions may differ. Part of at least one peptide drawing is inferred or uncertain, most often the ends. Bridges are numbered along the chain shown (N, C = ends). Where no end group is shown, it is not given here.

What was measured:
Assay type in all cases: biochemical
Factor XIa = target: T1, Factor XIa (Homo sapiens, UniProt P03951); experiment: Specificity assay, Factor XIa; conditions: 100 nM inhibitor; FXIa […], 0.7 mM S2366, 1 mg/mL BSA
T1 construct: purchased Haematologic Technologies Inc. (Essex Jct., Vt.)

activated protein C = target: T2, activated protein C (Homo sapiens, UniProt P04070); experiment: Specificity assay, activated protein C; conditions: for fraction of remaining proteolytic activity, activated protein C: 100 nM inhibitor, activated protein C 7.6 nM, 0.7 mM S2366
T2 construct: purchased Haematologic Technologies Inc. (Essex Jct., Vt.)

plasmin = target: T3, plasmin (Homo sapiens, UniProt P00747); experiment: Specificity assay, plasmin; conditions: 100 nM inhibitor; for fraction of remaining proteolytic activity, plasmin: plasmin 32 nM, 0.7 mM S2251
T3 construct: Human plasmin, S-2302, S-2251, and S-2366 were purchased from Kabi Vitrum (Sweden); purchased Kabi Vitrum (Sweden)

plasma kallikrein [1] = target: T4, plasma kallikrein (Homo sapiens, UniProt P03952); experiment: Specificity assay, plasma kallikrein; conditions: 100 nM inhibitor; plasma kallikrein 3.5 nM, 0.7 mM S2302; 2 h room temperature
T4 construct: Human plasma kallikrein and Factor XIIa were purchased; purchased Enzyme Research Laboratories, Inc. (South Bend, Ind.)

[2] = target: T5, TF-FVIIa (tissue factor-Factor VIIa) (Homo sapiens, UniProt P08709); experiment: Specificity assay, TF-FVIIa; conditions: for fraction of remaining proteolytic activity, TF · Factor VIIa: 100 nM inhibitor, TF 77 nM-FVIIa 14 nM, 0.7 mM S2366
T5 construct: purchased Haematologic Technologies Inc. (FVIIa); TF made in house; host or cells: E. coli (TF 1-243)

Factor XIIa = target: T6, Factor XIIa (Homo sapiens, UniProt P00748); experiment: Specificity assay, Factor XIIa; conditions: for fraction of remaining proteolytic activity, Factor XIIa: 100 nM inhibitor, 0.7 mM S2302
T6 construct: purchased Enzyme Research Laboratories, Inc. (South Bend, Ind.)
T6 sequence (P00748 373-615 limits assumed): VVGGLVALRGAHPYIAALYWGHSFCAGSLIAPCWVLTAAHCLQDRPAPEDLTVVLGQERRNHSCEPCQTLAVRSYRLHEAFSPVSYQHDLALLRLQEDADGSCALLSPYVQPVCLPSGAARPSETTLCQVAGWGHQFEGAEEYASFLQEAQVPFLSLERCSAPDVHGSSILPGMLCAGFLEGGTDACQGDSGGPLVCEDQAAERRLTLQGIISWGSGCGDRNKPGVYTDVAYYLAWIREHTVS
T6 sequence (P00748 20-372 limits assumed): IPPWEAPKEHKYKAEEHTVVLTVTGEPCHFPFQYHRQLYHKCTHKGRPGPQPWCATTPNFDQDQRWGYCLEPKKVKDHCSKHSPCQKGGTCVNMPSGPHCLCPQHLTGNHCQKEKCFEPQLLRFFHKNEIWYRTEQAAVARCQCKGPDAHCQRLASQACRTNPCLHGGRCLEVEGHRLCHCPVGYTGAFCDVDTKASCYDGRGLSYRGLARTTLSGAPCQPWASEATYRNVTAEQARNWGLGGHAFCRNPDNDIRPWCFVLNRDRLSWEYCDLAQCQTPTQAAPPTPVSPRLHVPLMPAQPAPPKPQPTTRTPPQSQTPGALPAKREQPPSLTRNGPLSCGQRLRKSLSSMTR

thrombin = target: T7, thrombin (Homo sapiens, UniProt P00734); experiment: Specificity assay, thrombin; conditions: for fraction of remaining proteolytic activity, thrombin: 100 nM inhibitor, thrombin 6.2 nM, 0.7 mM S2366
T7 construct: purchased Haematologic Technologies Inc. (Essex Jct., Vt.)

plasma kallikrein [3] = target: T4, plasma kallikrein; experiment: Apparent equilibrium dissociation constant (Ki*) with plasma kallikrein; conditions: relative to BPTI
[4] = tested on: extrinsic coagulation pathway; experiment: Prothrombin time (PT) clotting assay, tissue factor initiated; conditions: normal human plasma, TF initiated
Procedure: (§1) FIG. 5A and FIG. 5B. […] The uninhibited clotting times were 33.6 sec and 14 sec for the APTT and PT, respectively
(§2) Clotting times for normal human plasma were performed using an MLA Electra 800 Coagulometer (Medical Laboratory Automation, Inc. Pleasantville, N.Y.) and Dade reagents (Baxter Health Care Corp., Miami Fla.). The clotting time was determined by optical assessment.

[5] = tested on: intrinsic coagulation pathway; experiment: Activated partial thromboplastin time (APTT) clotting assay in normal human plasma
Procedure: as §1, §2
For the activated partial thromboplastin time (APTT) assays, the activation time was set at 120 sec and acquisition time at 300 to 600 sec depending on the expected outcome of the assay. Citrated normal human plasma and inhibitor were incubated together. The sample (plasma and inhibitor) and activator (Actin FS) were automatically pipetted and incubated is together for 2 min at 37° C., then CaCl2 was added and clotting time determined by means of optical assessment. The total incubation time of inhibitor with plasma was ca. 3 min before addition of activator, and 5 min before addition of CaCl2.

T3 sequence (P00747 581-810 limits assumed): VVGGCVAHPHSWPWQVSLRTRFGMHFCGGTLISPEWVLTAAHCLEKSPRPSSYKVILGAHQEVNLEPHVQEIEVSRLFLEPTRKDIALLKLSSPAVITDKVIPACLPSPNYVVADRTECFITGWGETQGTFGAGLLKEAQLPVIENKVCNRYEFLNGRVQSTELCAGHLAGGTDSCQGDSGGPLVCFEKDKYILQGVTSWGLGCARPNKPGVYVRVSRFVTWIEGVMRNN
T3 sequence (P00747 97-580 limits assumed): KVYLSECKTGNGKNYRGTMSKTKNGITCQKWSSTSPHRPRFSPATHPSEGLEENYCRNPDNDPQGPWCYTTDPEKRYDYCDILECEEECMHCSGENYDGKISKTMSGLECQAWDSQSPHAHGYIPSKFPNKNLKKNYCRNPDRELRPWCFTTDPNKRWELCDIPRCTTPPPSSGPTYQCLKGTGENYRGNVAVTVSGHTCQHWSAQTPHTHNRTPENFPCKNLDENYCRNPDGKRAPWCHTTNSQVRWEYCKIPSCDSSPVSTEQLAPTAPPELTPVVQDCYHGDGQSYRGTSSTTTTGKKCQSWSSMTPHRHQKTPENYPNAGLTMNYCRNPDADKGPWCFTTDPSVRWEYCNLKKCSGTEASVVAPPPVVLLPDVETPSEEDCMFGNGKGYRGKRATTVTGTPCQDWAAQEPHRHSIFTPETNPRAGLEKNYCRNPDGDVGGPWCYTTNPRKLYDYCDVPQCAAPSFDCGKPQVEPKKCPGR
T2 sequence (P04070 212-461 limits assumed): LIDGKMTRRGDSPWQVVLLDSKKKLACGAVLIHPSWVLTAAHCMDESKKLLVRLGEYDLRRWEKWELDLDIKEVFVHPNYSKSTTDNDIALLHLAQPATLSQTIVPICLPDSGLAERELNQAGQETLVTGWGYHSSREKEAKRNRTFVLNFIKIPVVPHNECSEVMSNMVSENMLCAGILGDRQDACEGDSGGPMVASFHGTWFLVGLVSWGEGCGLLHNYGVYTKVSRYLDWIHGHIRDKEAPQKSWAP
T2 sequence (P04070 43-197 limits assumed): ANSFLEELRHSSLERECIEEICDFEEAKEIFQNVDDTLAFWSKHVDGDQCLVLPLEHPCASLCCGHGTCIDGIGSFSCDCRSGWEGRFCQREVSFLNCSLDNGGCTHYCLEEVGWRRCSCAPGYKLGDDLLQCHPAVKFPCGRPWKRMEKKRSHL
T4 sequence (P03952 391-638 limits assumed): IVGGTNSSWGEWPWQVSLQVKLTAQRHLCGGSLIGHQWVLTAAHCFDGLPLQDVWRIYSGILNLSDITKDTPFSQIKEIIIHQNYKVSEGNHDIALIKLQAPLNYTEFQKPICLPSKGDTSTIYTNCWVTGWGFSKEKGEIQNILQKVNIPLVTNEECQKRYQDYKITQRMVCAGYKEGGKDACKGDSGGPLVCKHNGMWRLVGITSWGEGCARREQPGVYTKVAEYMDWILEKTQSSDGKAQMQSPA
T4 sequence (P03952 20-390 limits assumed): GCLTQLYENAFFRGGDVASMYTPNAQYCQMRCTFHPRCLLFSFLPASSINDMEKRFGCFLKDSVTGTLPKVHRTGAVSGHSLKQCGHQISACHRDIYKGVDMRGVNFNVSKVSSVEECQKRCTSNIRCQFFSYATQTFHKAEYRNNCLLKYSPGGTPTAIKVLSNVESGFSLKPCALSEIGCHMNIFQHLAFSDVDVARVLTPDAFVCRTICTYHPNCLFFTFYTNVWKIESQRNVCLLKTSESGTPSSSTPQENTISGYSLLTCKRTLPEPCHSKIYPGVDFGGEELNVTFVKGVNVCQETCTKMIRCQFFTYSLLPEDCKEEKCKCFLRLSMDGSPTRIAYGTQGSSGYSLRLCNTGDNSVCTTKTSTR
T5 sequence (P08709 213-466 limits assumed): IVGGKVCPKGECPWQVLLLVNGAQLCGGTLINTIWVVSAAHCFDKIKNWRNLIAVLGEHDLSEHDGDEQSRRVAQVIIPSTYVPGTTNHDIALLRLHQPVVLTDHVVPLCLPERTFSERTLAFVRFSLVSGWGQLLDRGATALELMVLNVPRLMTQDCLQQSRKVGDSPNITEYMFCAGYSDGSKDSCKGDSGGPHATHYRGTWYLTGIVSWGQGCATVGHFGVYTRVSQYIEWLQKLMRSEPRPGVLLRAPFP
T5 sequence (P08709 61-212 limits assumed): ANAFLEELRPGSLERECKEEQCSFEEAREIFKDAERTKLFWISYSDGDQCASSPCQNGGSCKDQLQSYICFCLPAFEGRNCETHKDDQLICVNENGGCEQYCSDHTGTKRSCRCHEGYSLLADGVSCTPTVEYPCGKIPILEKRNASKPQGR
T5 sequence (P13726 33-275 partner limits assumed): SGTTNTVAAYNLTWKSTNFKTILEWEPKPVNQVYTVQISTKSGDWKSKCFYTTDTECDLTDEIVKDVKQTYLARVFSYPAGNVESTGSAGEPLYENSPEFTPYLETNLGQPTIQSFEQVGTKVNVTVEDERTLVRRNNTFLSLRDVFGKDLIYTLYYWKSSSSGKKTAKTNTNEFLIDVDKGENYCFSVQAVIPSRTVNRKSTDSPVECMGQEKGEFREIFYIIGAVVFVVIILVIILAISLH
T1 sequence (P03951 388-625 limits assumed): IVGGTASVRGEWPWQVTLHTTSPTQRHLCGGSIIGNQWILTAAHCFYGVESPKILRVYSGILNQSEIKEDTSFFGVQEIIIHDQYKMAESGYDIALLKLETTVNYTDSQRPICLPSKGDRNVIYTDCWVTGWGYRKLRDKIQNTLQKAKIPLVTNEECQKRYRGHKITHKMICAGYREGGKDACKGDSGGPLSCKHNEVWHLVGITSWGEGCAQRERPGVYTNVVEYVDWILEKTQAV
T1 sequence (P03951 19-387 limits assumed): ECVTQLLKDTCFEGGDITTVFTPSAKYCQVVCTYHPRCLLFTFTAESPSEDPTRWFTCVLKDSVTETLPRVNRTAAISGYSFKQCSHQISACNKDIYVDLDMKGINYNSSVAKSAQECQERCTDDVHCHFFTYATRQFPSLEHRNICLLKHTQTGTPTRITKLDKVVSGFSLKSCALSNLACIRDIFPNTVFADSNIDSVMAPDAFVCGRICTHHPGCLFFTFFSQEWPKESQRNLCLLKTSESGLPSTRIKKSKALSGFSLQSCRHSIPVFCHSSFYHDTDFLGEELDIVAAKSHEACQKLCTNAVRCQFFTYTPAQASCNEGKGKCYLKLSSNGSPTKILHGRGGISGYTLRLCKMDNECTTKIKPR

Compound | fraction of remaining proteolytic activity, Factor XIa (Factor XIa) | fraction of remaining proteolytic activity, activated protein C (activated protein C) | inhibition of plasmin (plasmin) [%] | fraction of remaining proteolytic activity, plasmin (plasmin) | fraction of remaining proteolytic activity, plasma kallikrein (plasma kallikrein [1]) | fraction of remaining proteolytic activity, TF · Factor VIIa [2] | fraction of remaining proteolytic activity, Factor XIIa (Factor XIIa) | fraction of remaining proteolytic activity, thrombin (thrombin) | potency of plasma kallikrein inhibition compared to BPTI (plasma kallikrein [3]) | inhibition of activated protein C (in words) (activated protein C) | prolongation of clotting time in PT assay (in words) [4] | inhibition of TF-FVIIa (in words) [2] | inhibition of FXIIa (in words) (Factor XIIa) | inhibition of thrombin (in words) (thrombin) | prolongation of clotting time in APTT (in words) [5]
CC(C)[C@H](N)C(=O)N[C@@H](CCCNC(=N)N)C(=O)N[C@@H](CCC(=O)O)C(=O)N[C@H](C(=O)N[C@H]1CSSC[C@@H](C(=O)NCC(=O)N[C@@H](CO)C(=O)N[C@@H](C)C(=O)O)NC(=O)[C@H](C(C)C)NC(=O)[C@H](C)NC(=O)[C@H](C)NC(=O)[C@@H]2CSSC[C@@H]3NC(=O)[C@H](CCCCN)NC(=O)CNC(=O)[C@H](CCC(=O)O)NC(=O)[C@H]([C@@H](C)O)NC(=O)[C@H](C(C)C)NC(=O)[C@H](CC(=O)O)NC(=O)[C@H](Cc4ccccc4)NC(=O)[C@H](Cc4ccc(O)cc4)NC(=O)[C@H](Cc4c[nH]c5ccccc45)NC(=O)[C@H](CCCNC(=N)N)NC(=O)[C@H](CO)NC(=O)[C@H](Cc4c[nH]cn4)NC(=O)[C@H](C)NC(=O)[C@H](C)NC(=O)[C@H](CCCNC(=N)N)NC(=O)[C@H](CSSC[C@H](NC(=O)CNC(=O)CNC(=O)[C@H](Cc4ccc(O)cc4)NC(=O)[C@H](C(C)C)NC(=O)[C@H](Cc4ccccc4)NC(=O)[C@@H]4CCCN4C(=O)[C@H](C)NC3=O)C(=O)NCC(=O)NCC(=O)N[C@@H](CC(N)=O)C(=O)N[C@@H](CCCNC(=N)N)C(=O)N[C@@H](CC(N)=O)C(=O)N[C@@H](CC(N)=O)C(=O)N[C@@H](Cc3ccccc3)C(=O)N[C@@H](CC(=O)O)C(=O)N[C@@H]([C@@H](C)O)C(=O)N[C@@H](CCC(=O)O)C(=O)N[C@@H](CCC(=O)O)C(=O)N[C@@H](Cc3ccc(O)cc3)C(=O)N2)NC(=O)[C@@H]2CCCN2C(=O)CNC(=O)[C@H]([C@@H](C)O)NC(=O)[C@H](CCC(=O)O)NC(=O)[C@H](C)NC(=O)[C@H](CCC(N)=O)NC(=O)[C@H](CCC(=O)O)NC(=O)[C@H](CO)NC1=O)C(C)C [KALI-42] | 0.04 | 0.71 | > 60 | 0.04 | 0.00 | 0.97 | 0.97 | 0.99 |  |  |  |  |  |  | 
CC(C)C[C@@H]1NC(=O)[C@H](C)NC(=O)[C@H](CCCNC(=N)N)NC(=O)[C@@H]2CSSC[C@@H]3NC(=O)CNC(=O)CNC(=O)[C@H](Cc4ccc(O)cc4)NC(=O)[C@H](Cc4ccc(O)cc4)NC(=O)[C@H](Cc4ccccc4)NC(=O)[C@@H]4CCCN4C(=O)[C@H](C)NC(=O)[C@H](CSSC[C@H](NC(=O)[C@H](Cc4ccc(O)cc4)NC(=O)[C@H](CCC(=O)O)NC(=O)[C@H](CCC(=O)O)NC(=O)[C@H]([C@@H](C)O)NC(=O)[C@H](CC(=O)O)NC(=O)[C@H](Cc4ccccc4)NC(=O)[C@H](CC(N)=O)NC(=O)[C@H](CC(N)=O)NC(=O)[C@H](CCCNC(=N)N)NC(=O)[C@H](CC(N)=O)NC(=O)CNC(=O)CNC3=O)C(=O)N[C@@H](C)C(=O)N[C@@H](C)C(=O)N[C@@H](C(C)C)C(=O)N[C@H](C(=O)NCC(=O)N[C@@H](CO)C(=O)N[C@@H](C)C(=O)O)CSSC[C@H](NC(=O)[C@@H](NC(=O)[C@H](CCC(=O)O)NC(=O)[C@H](CCCNC(=N)N)NC(=O)[C@@H](N)C(C)C)C(C)C)C(=O)N[C@@H](CO)C(=O)N[C@@H](CCC(=O)O)C(=O)N[C@@H](CCC(N)=O)C(=O)N[C@@H](C)C(=O)N[C@@H](CCC(=O)O)C(=O)N[C@@H]([C@@H](C)O)C(=O)NCC(=O)N3CCC[C@H]3C(=O)N2)NC(=O)[C@H](CCCCN)NC(=O)CNC(=O)[C@H](CCC(=O)O)NC(=O)[C@H]([C@@H](C)O)NC(=O)[C@H](C(C)C)NC(=O)[C@H](CC(=O)O)NC(=O)[C@H](Cc2ccccc2)NC(=O)[C@H](Cc2ccc(O)cc2)NC(=O)[C@H](Cc2c[nH]c3ccccc23)NC(=O)[C@H](CCCNC(=N)N)NC(=O)[C@H](CO)NC(=O)[C@H](Cc2c[nH]cn2)NC1=O [KALI-38] | 0.02 | 0.97 | > 60 | 0.19 | 0.00 | 0.45 | 0.97 | 1.00 |  |  |  |  |  |  | 
CC(C)[C@H](N)C(=O)N[C@@H](CCCNC(=N)N)C(=O)N[C@@H](CCC(=O)O)C(=O)N[C@H](C(=O)N[C@H]1CSSC[C@@H](C(=O)NCC(=O)N[C@@H](CO)C(=O)N[C@@H](C)C(=O)O)NC(=O)[C@H](C(C)C)NC(=O)[C@H](C)NC(=O)[C@H](C)NC(=O)[C@@H]2CSSC[C@@H]3NC(=O)[C@H](CCCCN)NC(=O)CNC(=O)[C@H](CCC(=O)O)NC(=O)[C@H]([C@@H](C)O)NC(=O)[C@H](C(C)C)NC(=O)[C@H](CC(=O)O)NC(=O)[C@H](Cc4ccccc4)NC(=O)[C@H](Cc4ccc(O)cc4)NC(=O)[C@H](Cc4c[nH]c5ccccc45)NC(=O)[C@H](CCCNC(=N)N)NC(=O)[C@@H]4CCCN4C(=O)[C@H](Cc4c[nH]cn4)NC(=O)[C@H](C)NC(=O)[C@H](C)NC(=O)[C@H](CCCNC(=N)N)NC(=O)[C@H](CSSC[C@H](NC(=O)CNC(=O)CNC(=O)[C@H](Cc4ccc(O)cc4)NC(=O)[C@H](C(C)C)NC(=O)[C@H](Cc4ccccc4)NC(=O)[C@@H]4CCCN4C(=O)[C@H](C)NC3=O)C(=O)NCC(=O)NCC(=O)N[C@@H](CC(N)=O)C(=O)N[C@@H](CCCNC(=N)N)C(=O)N[C@@H](CC(N)=O)C(=O)N[C@@H](CC(N)=O)C(=O)N[C@@H](Cc3ccccc3)C(=O)N[C@@H](CC(=O)O)C(=O)N[C@@H]([C@@H](C)O)C(=O)N[C@@H](CCC(=O)O)C(=O)N[C@@H](CCC(=O)O)C(=O)N[C@@H](Cc3ccc(O)cc3)C(=O)N2)NC(=O)[C@H](Cc2c[nH]cn2)NC(=O)CNC(=O)[C@H](CCC(=O)O)NC(=O)[C@H](CCC(=O)O)NC(=O)[C@H](C)NC(=O)[C@H](CCC(N)=O)NC(=O)[C@H](CCC(=O)O)NC(=O)[C@H](CO)NC1=O)C(C)C [KALI-EV] | 0.01 | 1.01 |  |  | 0.00 | 0.97 | 0.99 | 0.96 |  |  |  |  |  |  | 
VREVCSEQAEEGHCRAAHPRWYFDVTEGKCAPFFYGGCGGNRNNFDTEEYCAAVCGSA (disulfide 5-55, 14-38, 30-51) [KALI-E] | 0.03 | 0.85 |  |  | 0.00 | 0.96 | 1.00 | 0.95 |  |  |  |  |  |  | 
VREVCSEQAEDGHCRAAHPRWYFDVTEGKCAPFYYGGCGGNRNNFDTEEYCAAVCGSA (disulfide 5-55, 14-38, 30-51) [KALI-DY] | 0.03 | 0.99 |  |  | 0.00 | 0.86 |  | 0.86 | 3,000 fold | did not inhibit | did not prolong the clotting time; also recorded: but not the PT; also recorded: neither KALI-DY, BPTI, nor APPI appreciably prolonged | did not inhibit | did not inhibit | did not inhibit | prolonged the clotting time; also recorded: significantly more effective than either APPI; also recorded: in a concentration dependent manner
